# PubChem BioAssay AID651813 (National Center for Advancing Translational Sciences (NCATS), 2012)
# The campaign covered roughly 2,100 compounds. About 1,100 (52%) were called active. So high a share suggests a set chosen from earlier hits. This list was built around the results that the source calls inconclusive (neither active nor inactive); the mix of calls is not that of the screen. Calls come from the whole dose curve; as a rule, active = well fitted inhibition curve with a large enough effect; inconclusive = small, poorly fitted or top-dose-only effect; inactive = no such curve, though single readings can be large or run the other way. No potency is given beside an inconclusive call; the fits are too rough.
# Biological target: DNA dC->dU-editing enzyme APOBEC-3G (Homo sapiens) (UniProt Q9HC16)
# Chain of UniProt Q9HC16 (Q9HC16 whole entry, looked up): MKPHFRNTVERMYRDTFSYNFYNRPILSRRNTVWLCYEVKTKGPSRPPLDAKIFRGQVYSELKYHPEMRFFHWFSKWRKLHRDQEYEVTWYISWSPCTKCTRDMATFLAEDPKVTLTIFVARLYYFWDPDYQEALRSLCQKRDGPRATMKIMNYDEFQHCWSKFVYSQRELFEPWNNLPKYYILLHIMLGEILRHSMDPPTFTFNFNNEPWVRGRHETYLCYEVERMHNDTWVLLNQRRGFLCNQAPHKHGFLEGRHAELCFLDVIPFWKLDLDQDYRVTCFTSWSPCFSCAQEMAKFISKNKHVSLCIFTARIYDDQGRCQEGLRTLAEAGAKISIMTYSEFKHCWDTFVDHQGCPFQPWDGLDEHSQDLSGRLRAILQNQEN
# Experiment: qHTS for inhibitors of Vif-A3G interactions: Cherry picks counterscreen;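 note: hits raise yellow fluorescence by blocking Vif-driven A3G-eYFP degradation; nearly all actives have a fitted effect of over 70% in size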;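 for max response: max response given as percent of control signal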
# Details: HeLa A3G-eYFP + Vif (tagged APOBEC3G with the HIV-1 protein that degrades it), eYFP fluorescence, 24 h
# Text: The recent discovery and characterization of host restriction factors, which provide a potent defense to invading retroviruses, has provided new targets for antiviral drug development. APOBEC3G (A3G) and APOBEC3F (A3F) are potent cytidine deaminases that block HIV-1 replication; HIV-1 expresses the Vif protein, which counteracts A3G and A3F by binding to them and inducing their proteasomal degradation. The Vif-A3G and Vif-A3F interactions provide two potential targets for development of small molecules which can interfere with the ability of Vif to degrade A3G or A3F. […] To identify inhibitors that can interfere with Vif mediated degradation of A3G and A3F, we have developed Hela cell lines that stably express A3G or A3F tagged with eYFP at the C-terminal end (A3G-eYFP or A3F-eYFP, respectively) and Vif. In the absence of an inhibitor, Vif induces degradation of A3G-eYFP and A3F-eYFP, and the cells are not fluorescent. In the presence of an inhibitor, it is expected that Vif will be unable to degrade A3G-eYFP and/or A3F-eYFP, resulting in an increase in yellow fluorescence. In this counterscreen assay, Vif A3G was screened against the cherry picks ordered from the MLSMR. NIH Chemical Genomics Center [NCGC] NIH Molecular Libraries Probe Centers Network [MLPCN] MLPCN Grant: MH093245 Assay Submitter (PI): Vinay Pathak, National Cancer Institute
# A3G-Vif cells were harvested from T225 flask and resuspended in phenol free OPTI-MEM medium with 5% FBS. Then 5 uL of 140,000 cells/mL resuspended cells was dispensed into each well of low base Aurora COC 1,536-well plates (black walled, clear bottom) using a Multidrop Combi dispenser. After overnight culture at 37 deg C with 5% CO2, a total of 23 nL of compounds at 5 selected concentrations from the NPC or positive control (2 mM stock of MG132) in DMSO was transferred to each well of the assay plate using a pintool (Kalypsys, San Diego, CA), and the plates were further incubated at 37 deg C with 5% CO2 for 24 hours. After that, the plates were measured on Acumen Explorer (TTP Lab Tech). The fluorescence was detected by 488 nm/Ex and […].
# Potency is the fitted concentration of half-maximal effect; tags give direction and shape of the fitted curve.
SMILES,Potency,max response
O=C1/C(=C/c2ccc3c(c2)OCO3)SC(=S)N1CCC(=O)N(CCO)c1ccccc1,"inconclusive [inhibitor, partial curve]",
Cc1c2ccncc2c(C)c2c1[nH]c1ccccc12,"inconclusive [inhibitor, single point]",
Cc1cc(C)cc(N2C(=O)NC(=O)/C(=C\C=C\c3ccco3)C2=O)c1,"inconclusive [inhibitor, single point]",
COCCCNC(=O)c1c(NC(=O)c2ccco2)n(Cc2ccccc2)c2nc3ccccc3nc12,"inconclusive [inhibitor, full curve, poor fit]",
C/C(=C\c1ccc(N(C)C)cc1)[N+](=O)[O-],"inconclusive [inhibitor, single point]",
Cc1cc(/C=C2\C(=O)NC(=O)N(c3ccc(Br)cc3)C2=O)c(C)n1C,,inactive: 8.75%
CC(C)N1C(=O)/C(=C/C=C/c2ccco2)C(=O)N(Cc2ccco2)C1=O,"inconclusive [inhibitor, single point]",
O=c1[nH]c(O)c(/C=C2\C=Nc3ccc(OCc4ccccc4)cc32)c(=O)[nH]1,"inconclusive [inhibitor, single point]",
CCN(CC)c1ccc(/C=C/[N+](=O)[O-])cc1,"inconclusive [inhibitor, partial curve]",
CC/C(=N\NC(=O)c1ccccc1O)c1c(O)n(Cc2ccccc2)c(=O)[nH]c1=O,"inconclusive [inhibitor, single point]",
Cc1ccccc1-n1c(/C=C/c2ccc(N(C)C)cc2)nc2ccccc2c1=O,active: 1.46 µM,
O=[N+]([O-])c1ccc(N2CCOCC2)c2c1no[n+]2[O-],"inconclusive [inhibitor, single point]",
Cc1ccc(N2C(=O)NC(=O)/C(=C\C=C\c3ccco3)C2=O)cc1C,"inconclusive [inhibitor, single point]",
CC(C)CCCn1c(O)c(/C=C2/C=CC=N2)c(=O)[nH]c1=O,"inconclusive [inhibitor, single point]",
CCCCn1c(N)c(N(CC(C)C)C(=O)c2cc(Br)c(Br)s2)c(=O)[nH]c1=O,"inconclusive [inhibitor, single point]",
O=C1CN=C(c2cccc(Br)c2)c2cc(Br)ccc2N1,"inconclusive [inhibitor, single point]",
Cc1ccc(-n2c(O)c(/C=C3/C(c4ccccc4)=Nc4ccccc43)c(=O)[nH]c2=O)cc1,"inconclusive [inhibitor, single point]",
O=C1NC(=O)N(Cc2ccc(F)cc2)C(=O)/C1=C\c1ccoc1,"inconclusive [inhibitor, single point]",
Cn1cccc1/C=C1\C(=O)NC(=O)N(Cc2ccccc2Cl)C1=O,"inconclusive [inhibitor, single point]",
CN1CCN(c2ccc(/C=C3\C(=O)NC(=S)N(c4cccc(Br)c4)C3=O)o2)CC1,active: 16.4 µM,
COc1ccc(C(=O)Nc2ccc3c(c2)N(C)C(=O)c2ccccc2S3)cc1OC,"inconclusive [inhibitor, full curve]",
Cc1cccc(-n2c(/C=C/c3c(C)[nH]c4ccccc34)nc3ccccc3c2=O)c1,active: 18.4 µM,
O=c1c2ccccc2nc(/C=C/c2ccccc2O)n1-c1ccc(Br)cc1,"inconclusive [inhibitor, single point]",

SMILES,Potency,max response
COC(=O)C1=C(C)N(Cc2ccco2)C(=O)/C1=C\c1ccc(N(C)C)cc1,"inconclusive [inhibitor, partial curve]",
O=c1c2ccccc2nc(/C=C/c2ccc(F)cc2)n1-c1ccccc1O,"inconclusive [inhibitor, single point]",
COc1ccccc1-n1c(/C=C/c2ccc(O)cc2)nc2ccccc2c1=O,"inconclusive [inhibitor, single point]",
CC(=O)OC1C2(CC3N4C(=O)C5(CO)SSC4(CC31O)C(=O)N5C)OC(C)C(C)(C)C2=O (stereo not given),active: 12.5 µM,
ClCCN(CCCl)c1ccc(C=Cc2ccncn2)cc1,,inactive: -8.89%
COCCCn1c(=O)/c(=C\c2ccccc2OC(F)F)s/c1=C(/C#N)C(=O)NCCOC,"inconclusive [inhibitor, partial curve, poor fit]",
O=c1[nH]c(=O)n(Cc2ccccc2Cl)c(O)c1/C=C1/C=CC=N1,"inconclusive [inhibitor, single point]",
Cc1cccc(N2C(=O)NC(=O)/C(=C\C=C\c3ccco3)C2=O)c1,"inconclusive [inhibitor, single point]",
Clc1ccc(-c2csc3ncnc(Sc4nnnn4C4CC4)c23)cc1,"inconclusive [inhibitor, single point]",
NC(=Nc1ccccc1)NN=Cc1c[nH]c2ccccc12,active: 2.23 µM,
CCN1C(=O)C(=C/C=C/c2ccco2)C(=O)N(CC)C1=S,"inconclusive [inhibitor, single point]",
CCN(CC)c1ccc(/C=C2\C(=O)NC(=S)N(C)C2=O)o1,active: 14 µM,
CCCCCn1c(NC(=O)c2ccco2)c(C(=O)OCC)c2nc3ccccc3nc21,"inconclusive [inhibitor, single point]",
Cc1ccc(/C=C2/C(=O)NC(=O)N(CCc3ccc(F)cc3)C2=O)s1,"inconclusive [inhibitor, single point]",
CN(C)c1ccc(/C=C/C=C2/C(=O)NC(=O)N(c3ccccc3)C2=O)cc1,"inconclusive [inhibitor, single point]",
COCCNC(=O)c1c(NC(=O)c2ccc(Br)o2)n(Cc2ccccc2)c2nc3ccccc3nc12,"inconclusive [inhibitor, single point]",
CCC(C)N1C(=O)/C(=C\c2ccc(N3CCCCCC3)cc2)C(=O)NC1=S (stereo not given),"inconclusive [inhibitor, single point]",
CCCCn1c(O)c(/C=C2/C=CC=N2)c(=O)[nH]c1=O,"inconclusive [inhibitor, single point]",
C=CCn1c(O)c(C(C)=Nc2ccc(N(CC)CC)cc2)c(=O)[nH]c1=O,active: 9.94 µM,
COc1cc(/C=C/C(=O)c2c(O)n(CCc3ccccc3)c(=O)[nH]c2=O)ccc1O,"inconclusive [inhibitor, single point]",
O=C1NC(=O)N(Cc2ccc(F)cc2)C(=O)/C1=C\C=C\c1ccco1,"inconclusive [inhibitor, single point]",
CCOc1ccc(CNC(=O)c2cccc(Nc3nc4ccccc4n4nnnc34)c2)cc1OC,"inconclusive [inhibitor, full curve, poor fit]",
